The text below walks through data of paper PMC7462304.

Protein sequences, listed by entry. Tags and fused reporters are not part of them.
UniProt Q8K1M6: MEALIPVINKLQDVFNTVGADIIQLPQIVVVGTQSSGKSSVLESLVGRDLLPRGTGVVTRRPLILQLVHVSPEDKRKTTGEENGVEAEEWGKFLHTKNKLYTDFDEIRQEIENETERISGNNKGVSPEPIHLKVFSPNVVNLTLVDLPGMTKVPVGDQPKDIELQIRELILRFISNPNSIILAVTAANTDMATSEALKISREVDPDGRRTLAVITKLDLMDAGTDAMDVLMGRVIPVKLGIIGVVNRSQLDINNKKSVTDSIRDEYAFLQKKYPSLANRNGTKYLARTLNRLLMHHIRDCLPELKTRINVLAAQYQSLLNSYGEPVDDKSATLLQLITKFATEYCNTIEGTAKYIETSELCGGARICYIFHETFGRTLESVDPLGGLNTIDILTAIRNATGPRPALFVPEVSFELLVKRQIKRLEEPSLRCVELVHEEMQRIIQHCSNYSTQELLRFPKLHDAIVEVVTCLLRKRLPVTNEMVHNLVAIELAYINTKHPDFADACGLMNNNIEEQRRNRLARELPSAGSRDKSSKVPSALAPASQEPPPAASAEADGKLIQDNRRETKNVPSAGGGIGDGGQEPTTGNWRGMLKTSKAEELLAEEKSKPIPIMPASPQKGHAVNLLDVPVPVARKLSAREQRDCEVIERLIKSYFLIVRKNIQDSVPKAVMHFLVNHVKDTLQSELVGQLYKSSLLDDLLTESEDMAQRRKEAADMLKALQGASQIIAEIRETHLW
UniProt P63242: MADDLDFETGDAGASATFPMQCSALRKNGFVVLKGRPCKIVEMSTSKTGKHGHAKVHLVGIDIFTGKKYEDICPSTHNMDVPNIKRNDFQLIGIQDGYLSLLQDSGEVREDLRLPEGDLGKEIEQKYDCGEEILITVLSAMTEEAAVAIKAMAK

These are yes or no findings as the source states them, for the method shown. In cells and extracts the contact can be indirect. Some entries that bind do so weakly or less than the wild type. For some assays here: Sequences can lack the tags named with a protein.

Assay [1] concerns the target T1, mitofusin 1 (mouse (endogenous in mouse VSMCs)) (UniProt Q811U4).
T1 sequence: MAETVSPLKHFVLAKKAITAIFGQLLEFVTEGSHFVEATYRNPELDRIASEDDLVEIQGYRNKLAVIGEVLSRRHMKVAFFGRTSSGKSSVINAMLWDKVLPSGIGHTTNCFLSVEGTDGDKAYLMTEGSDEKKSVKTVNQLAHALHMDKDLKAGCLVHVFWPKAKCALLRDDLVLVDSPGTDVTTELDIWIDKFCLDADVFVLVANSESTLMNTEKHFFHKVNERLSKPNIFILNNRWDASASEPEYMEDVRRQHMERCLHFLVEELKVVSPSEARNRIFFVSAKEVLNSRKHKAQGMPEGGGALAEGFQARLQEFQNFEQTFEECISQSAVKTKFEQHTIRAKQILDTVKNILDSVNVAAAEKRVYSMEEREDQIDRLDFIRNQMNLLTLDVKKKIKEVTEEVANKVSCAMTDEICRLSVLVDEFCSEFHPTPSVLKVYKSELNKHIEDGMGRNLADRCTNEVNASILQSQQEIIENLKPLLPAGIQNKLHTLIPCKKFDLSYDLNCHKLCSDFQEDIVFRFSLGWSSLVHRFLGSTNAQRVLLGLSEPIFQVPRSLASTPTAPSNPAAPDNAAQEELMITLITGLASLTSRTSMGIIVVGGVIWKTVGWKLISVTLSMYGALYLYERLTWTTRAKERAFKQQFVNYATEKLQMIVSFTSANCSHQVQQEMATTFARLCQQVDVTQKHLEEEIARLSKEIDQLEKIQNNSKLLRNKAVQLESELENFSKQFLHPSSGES
Put plainly: proximity ligation; Duolink in situ PLA with anti-eIF5a (mouse) and anti-Mfn1 (rabbit) in paraformaldehyde-fixed mouse VSMCs treated with Ang II (100 nmol/L) for the indicated times.

Assay [2] concerns the target dynamin-related protein 1 (not stated (endogenous in VSMCs; mouse and human VSMCs were cultured)) (UniProt Q8K1M6). Put plainly: co-IP; reciprocal co-immunoprecipitation of endogenous proteins from lysates of VSMCs treated with Ang II (100 nmol/L) for the indicated times (0, 1, 5 days); antibody 1 hour at 4°C, protein A agarose overnight at 4°C, washed 5 times with cold RIPA buffer; IgG as negative control.

Assay [3] addresses T2, fission mitochondrial 1 (not stated (endogenous in VSMCs; mouse and human VSMCs were cultured)) (UniProt Q9CQ92).
T2 sequence: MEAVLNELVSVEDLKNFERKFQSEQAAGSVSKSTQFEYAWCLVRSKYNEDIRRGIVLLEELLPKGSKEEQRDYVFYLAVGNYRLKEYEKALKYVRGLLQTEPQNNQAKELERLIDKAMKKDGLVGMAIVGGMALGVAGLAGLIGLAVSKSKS
Described as above.

Assay [4] concerns the target T3, mitochondrial fission regulator 1 (not stated (endogenous in VSMCs; mouse and human VSMCs were cultured)) (UniProt Q99MB2).
T3 sequence: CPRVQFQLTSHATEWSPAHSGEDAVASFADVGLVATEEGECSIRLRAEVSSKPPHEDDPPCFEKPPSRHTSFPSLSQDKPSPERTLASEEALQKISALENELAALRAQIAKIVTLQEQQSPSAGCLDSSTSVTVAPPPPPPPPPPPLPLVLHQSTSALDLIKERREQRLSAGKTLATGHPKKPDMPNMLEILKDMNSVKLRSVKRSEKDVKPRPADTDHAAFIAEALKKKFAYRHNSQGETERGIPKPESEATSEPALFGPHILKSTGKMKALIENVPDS
Described as above.

Assay [5] has as its target T1, mitofusin 1 (mouse (endogenous in mouse VSMCs)). The description is as above.

“eukaryotic translation initiation factor 5a (from UniProt P63242 1-154)”: the binding result in assay [1] is reported as “binds”; in assay [2], “no binding”; in assay [3], “no binding”; in assay [4], “no binding”; in assay [5] it was “binds”.
